Experiment [1] has as its target Flag-tagged ORF45 (KSHV open reading frame 45), full length (Kaposi's sarcoma-associated herpesvirus (KSHV), BAC16) (UniProt F5HDE4). Put plainly: co-IP; HEK293T cells cotransfected with a Flag-tagged and an HA-tagged protein; lysed on ice in RIPA buffer; immunoprecipitated with an anti-Flag antibody; western blotting.
Experiment [2] addresses Flag-tagged RAB11FIP5 truncation mutant 16–127 (C2 domain) (human) (UniProt Q9BXF6). The experiment is described as above.
Experiment [3] deals with Flag-tagged C2 region deletion mutant of RAB11FIP5 (Δ16–127) (human) (UniProt Q9BXF6). The description is as above.
Experiment [4] concerns the target T1, Flag-tagged RAB11FIP5, full length (human) (UniProt Q9BXF6).
T1 sequence: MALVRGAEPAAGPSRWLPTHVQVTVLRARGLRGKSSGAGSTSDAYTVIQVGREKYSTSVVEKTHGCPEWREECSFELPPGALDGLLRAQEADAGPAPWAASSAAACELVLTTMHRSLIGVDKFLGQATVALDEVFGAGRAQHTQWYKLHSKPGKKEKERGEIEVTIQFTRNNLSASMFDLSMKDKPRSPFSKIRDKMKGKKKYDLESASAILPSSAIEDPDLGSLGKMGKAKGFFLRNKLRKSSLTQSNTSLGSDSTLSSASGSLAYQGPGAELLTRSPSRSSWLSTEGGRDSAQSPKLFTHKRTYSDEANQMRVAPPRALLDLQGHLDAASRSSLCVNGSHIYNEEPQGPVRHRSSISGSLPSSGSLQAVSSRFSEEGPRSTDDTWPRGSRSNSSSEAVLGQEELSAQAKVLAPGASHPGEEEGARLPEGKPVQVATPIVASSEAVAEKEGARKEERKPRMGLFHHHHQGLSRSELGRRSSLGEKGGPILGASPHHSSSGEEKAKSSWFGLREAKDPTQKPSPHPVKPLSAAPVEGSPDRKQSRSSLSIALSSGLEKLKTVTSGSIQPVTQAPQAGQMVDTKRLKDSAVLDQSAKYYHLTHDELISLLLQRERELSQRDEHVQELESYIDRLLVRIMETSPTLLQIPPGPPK
The description is as above.

By UniProt entry, the sequences of proteins in these tests, tags left out.
UniProt F5HDE4: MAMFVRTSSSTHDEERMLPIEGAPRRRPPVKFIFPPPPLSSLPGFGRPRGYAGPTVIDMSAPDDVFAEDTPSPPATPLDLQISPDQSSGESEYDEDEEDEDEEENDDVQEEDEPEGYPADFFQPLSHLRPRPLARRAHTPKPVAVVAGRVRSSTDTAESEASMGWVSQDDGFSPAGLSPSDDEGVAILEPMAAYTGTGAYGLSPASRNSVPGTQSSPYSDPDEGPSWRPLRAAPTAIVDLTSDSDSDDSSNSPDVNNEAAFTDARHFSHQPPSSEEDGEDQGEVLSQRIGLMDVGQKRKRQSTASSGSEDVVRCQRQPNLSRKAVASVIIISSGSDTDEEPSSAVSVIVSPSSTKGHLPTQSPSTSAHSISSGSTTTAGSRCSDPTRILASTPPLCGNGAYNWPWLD
UniProt Q7L804: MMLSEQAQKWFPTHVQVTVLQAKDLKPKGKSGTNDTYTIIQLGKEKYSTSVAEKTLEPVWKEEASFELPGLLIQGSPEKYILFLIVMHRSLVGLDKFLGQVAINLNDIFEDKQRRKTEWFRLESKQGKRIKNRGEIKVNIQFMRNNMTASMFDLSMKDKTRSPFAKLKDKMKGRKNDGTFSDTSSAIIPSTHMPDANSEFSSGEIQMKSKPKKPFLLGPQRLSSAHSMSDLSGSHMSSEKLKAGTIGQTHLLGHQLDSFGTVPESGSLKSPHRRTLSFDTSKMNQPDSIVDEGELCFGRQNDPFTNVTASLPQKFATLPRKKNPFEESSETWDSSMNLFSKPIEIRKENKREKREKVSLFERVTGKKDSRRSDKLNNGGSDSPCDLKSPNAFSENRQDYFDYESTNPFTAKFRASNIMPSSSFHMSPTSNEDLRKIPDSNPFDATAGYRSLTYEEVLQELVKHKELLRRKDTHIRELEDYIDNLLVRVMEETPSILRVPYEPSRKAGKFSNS

The target of experiment [5] is Flag-tagged RAB11FIP5 truncation mutant 1–490 (human) (UniProt Q9BXF6). The experiment is described as above.
In experiment [6] the target is endogenous ORF45 of KSHV-infected cells (KSHV (endogenous in iSLK.RGB and BCBL1)) (UniProt F5HDE4). Description: co-IP; endogenous proteins; iSLK.RGB cells induced by dox or BCBL1 cells treated with VPA for 24 h; lysates immunoprecipitated with anti-ORF45 or mouse IgG control antibody; western blotting.

No constants are given. Whether binding was seen depends on the method and setting. In cells and extracts the contact can be indirect. Some entries that bind do so weakly or less than the wild type. For some of these results: Tags and fused reporters may be left off the sequences shown.

Consider “HA-RAB11FIP2 (from UniProt Q7L804 1-512)”, for which the binding result in experiment [1] is given as “no binding”.

For the molecule “HA-tagged ORF45 (KSHV), full length (from UniProt F5HDE4 1-407)”, the binding result in experiment [2] was “binds”; in experiment [3], “no binding”; in experiment [4], “binds”; in experiment [5], “binds”.

B1: HA-RAB11FIP4 (protein, UniProt Q86YS3 1-637)
chain: MAGGAGWSGAPAALLRSVRRLREVFEVCGRDPDGFLRVERVAALGLRFGQGEEVEKLVKYLDPNDLGRINFKDFCRGVFAMKGCEELLKDVLSVESAGTLPCAPEIPDCVEQGSEVTGPTFADGELIPREPGFFPEDEEEAMTLAPPEGPQELYTDSPMESTQSLEGSVGSPAEKDGGLGGLFLPEDKSLVHTPSMTTSDLSTHSTTSLISNEEQFEDYGEGDDVDCAPSSPCPDDETRTNVYSDLGSSVSSSAGQTPRKMRHVYNSELLDVYCSQCCKKINLLNDLEARLKNLKANSPNRKISSTAFGRQLMHSSNFSSSNGSTEDLFRDSIDSCDNDITEKVSFLEKKVTELENDSLTNGDLKSKLKQENTQLVHRVHELEEMVKDQETTAEQALEEEARRHREAYGKLEREKATEVELLNARVQQLEEENTELRTTVTRLKSQTEKLDEERQRMSDRLEDTSLRLKDEMDLYKRMMDKLRQNRLEFQKEREATQELIEDLRKELEHLQMYKLDCERPGRGRSASSGLGEFNARAREVELEHEVKRLKQENYKLRDQNDDLNGQILSLSLYEAKNLFAAQTKAQSLAAEIDTASRDELMEALKEQEEINFRLRQYMDKIILAILDHNPSILEIKH
As to B1, the binding entry in experiment [1] is “no binding”.

B2: HA-RAB11FIP1 (protein, UniProt Q6WKZ4 1-1283)
chain: MSLMVSAGRGLGAVWSPTHVQVTVLQARGLRAKGPGGTSDAYAVIQVGKEKYATSVSERSLGAPVWREEATFELPSLLSSGPAAAATLQLTVLHRALLGLDKFLGRAEVDLRDLHRDQGRRKTQWYKLKSKPGKKDKERGEIEVDIQFMRNNMTASMFDLSMKDKSRNPFGKLKDKIKGKNKDSGSDTASAIIPSTTPSVDSDDESVVKDKKKKSKIKTLLSKSNLQKTPLSQSMSVLPTSKPEKVLLRPGDFQSQWDEDDNEDESSSASDVMSHKRTASTDLKQLNQVNFTLPKKEGLSFLGGLRSKNDVLSRSNVCINGNHVYLEQPEAKGEIKDSSPSSSPSPKGFRKKHLFSSTENLAAGSWKEPAEGGGLSSDRQLSESSTKDSLKSMTLPSYRPAPLVSGDLRENMAPANSEATKEAKESKKPESRRSSLLSLMTGKKDVAKGSEGENPLTVPGREKEGMLMGVKPGEDASGPAEDLVRRSEKDTAAVVSRQGSSLNLFEDVQITEPEAEPESKSEPRPPISSPRAPQTRAVKPRLEVSPEAQPTARLPSPTDSPSSLPPLPSSSGQASVPSELGHGADTQSSESPSVFSSLSSPIAAPISTSTPIESWPLVDRGQAKSEGPPLLPKAELQTESLTPVPNSGSSALGSLFKQPSFPANKGTEDSLMGRTRETGTEKNTSSLELEESLPEQPETGRQEEELPRFPCKKQDYSPSSGEAQEVPFALSLSSDGAVSPVGELAAGGDRDLESQAGSLVESKARDAAEEVAPPLPMGASVPSIDSMMRKLEEMGLNLRKDQKKTKKRVSFSEQLFTEEAVAGAALLVEGHSSCPQELNPAWSVAGNASDGEPPESPHAEDSERESVTTPGPATCGAPASPADHLLLPSQEESFSEVPMSEASSAKDTPLFRMEGEDALVTQYQSKASDHEGLLSDPLSDLQLVSDFKSPIMADLNLSLPSIPEVASDDERIDQVEDDGDQVEDDGETAKSSTLDIGALSLGLVVPCPERGKGPSGEADRLVLGEGLCDFRLQAPQASVTAPSEQTTEFGIHKPHLGKSSSLDKQLPGPSGGEEEKPMGNGSPSPPPGTSLDNPVPSPSPSEIFPVTHSFPSSAHSDTHHTSTAESQKKATAEGSAGRVENFGKRKPLLQAWVSPSETHPVSAQPGAGTGSAKHRLHPVKPMNAMATKVANCSLGTATIISENLNNEVMMKKYSPSDPAFAYAQLTHDELIQLVLKQKETISKKEFQVRELEDYIDNLLVRVMEETPNILRIPTQVGKKAGKM
For B2, the binding result in experiment [1] is “no binding”.

B3: HA-tagged RAB11 family interacting protein 5 (RAB11FIP5), full length (protein, UniProt Q9BXF6 1-653)
chain: T1 sequence
As for B3, the binding result in experiment [1] is reported as “binds”.

B4: endogenous RAB11FIP5 (protein, UniProt Q9BXF6 1-653)
chain: T1 sequence
As for B4, the binding result in experiment [6] is “binds”.

B5: HA-RAB11FIP3 (protein, UniProt O75154 1-756)
chain: MASAPPASPPGSEPPGPDPEPGGPDGPGAAQLAPGPAELRLGAPVGGPDPQSPGLDEPAPGAAADGGARWSAGPAPGLEGGPRDPGPSAPPPRSGPRGQLASPDAPGPGPRSEAPLPELDPLFSWTEEPEECGPASCPESAPFRLQGSSSSHRARGEVDVFSPFPAPTAGELALEQGPGSPPQPSDLSQTHPLPSEPVGSQEDGPRLRAVFDALDGDGDGFVRIEDFIQFATVYGAEQVKDLTKYLDPSGLGVISFEDFYQGITAIRNGDPDGQCYGGVASAQDEEPLACPDEFDDFVTYEANEVTDSAYMGSESTYSECETFTDEDTSTLVHPELQPEGDADSAGGSAVPSECLDAMEEPDHGALLLLPGRPHPHGQSVITVIGGEEHFEDYGEGSEAELSPETLCNGQLGCSDPAFLTPSPTKRLSSKKVARYLHQSGALTMEALEDPSPELMEGPEEDIADKVVFLERRVLELEKDTAATGEQHSRLRQENLQLVHRANALEEQLKEQELRACEMVLEETRRQKELLCKMEREKSIEIENLQTRLQQLDEENSELRSCTPCLKANIERLEEEKQKLLDEIESLTLRLSEEQENKRRMGDRLSHERHQFQRDKEATQELIEDLRKQLEHLQLLKLEAEQRRGRSSSMGLQEYHSRARESELEQEVRRLKQDNRNLKEQNEELNGQIITLSIQGAKSLFSTAFSESLAAEISSVSRDELMEAIQKQEEINFRLQDYIDRIIVAIMETNPSILEVK
Turning to B5, in experiment [1], the binding result is given as “no binding”.

These data come from paper PMC7735600.
